# The shares of active, inactive and inconclusive entries below differ from those in the screen. Potencies of inconclusive entries are doubtful fits and often do not repeat. Activity calls are given as the source filed them. The call rests on the fitted dose curve; in most records, active means well fitted cell-killing curve with a large enough effect; inconclusive means small, poorly fitted or top-dose-only effect, or effect the other way; inactive means flat fitted curve, though single readings scatter.
# Assay: S16 Schwann cell viability assay (CellTiter-Glo assay) (AID 624031);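 further: cellular ATP luminescence as a viability measure; nearly all actives have a fitted effect of over 70% in size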
# Settings: S16 rat Schwann cells viability, 24 h; series mostly up to 57.5 µM; activity change, negative = cytotoxicity: at the top concentration
# Description: Charcot-Marie-Tooth-Association [CMTA]
# National Center for Advancing Translational Sciences [NCATS]
# Charcot-Marie-Tooth (CMT) disease was first characterized by Jean-Martin Charcot and Pierre Marie in France and, independently, by Howard Henry Tooth in England in 1886. CMT is one of the most common inherited neurological diseases, affecting approximately 1 in 2,500 Americans. […] The most prevalent type of CMT is known as CMT1A and caused by a duplication of the PMP22 gene which leads to over-expression of this protein. PMP22 is a glycosylated intrinsic membrane protein accounting for 2-5% of the myelin protein content, and its over-expression results in demyelination and subsequently axonal loss.
# A pair of cellular transcription-based assays was developed in the S16 rat Schwann cell lines (Hai, M., et al., 2002) stably transfected with orthogonal reporters - firefly luciferase (Fluc) and beta-lactamase (beta-Lac) - whose expression is driven by an intronic regulatory element of the PMP22 gene (Jones, E.A., et al., 2011) to recapitulate endogenous expression of PMP22. A comprehensive library of approved drugs, the NCGC Pharmaceutical Collection (Huang, R., et al., 2011), was screened in the cross-validating platform of the orthogonal reporter assays to identify drug modulators inhibitory towards PMP22 expression.
# A set of counter-screens was devised to address non-specific activity of the library. An ATP-dependent CellTiter-Glo assay (developed by Promega Corp) was utilized to control cell viability. In addition, biochemical Fluc enzyme assay was performed to assess direct inhibition of the Fluc enzymatic activity.
# Hai, M., Muja, N., DeVries, G.H., Quarles, R.H. and Patel, P.I. Comparative analysis of Schwann cell lines as model systems for myelin gene transcription studies. J Neurosci Res, 2002. 69(4): pp 497-508
# Huang, R., Southall, N., Wang, Y., Yasgar A., Shinn P., Jadhav, A. , Nguyen, D.-T. and Austin, C.P., The NCGC pharmaceutical collection: a comprehensive resource of clinically approved drugs enabling repurposing and chemical genomics. Sci Transl Med, 2011. 3(80): p. 80ps16.
# Native S16 cells were seeded in white solid-bottom 1536 well plates at between 500-750 cells/6uL in DMEM medium containing 10% FBS, w/o phenol red. After overnight incubation at 37 degree Celsius/5% C02, 23 nL of compounds or DMSO were delivered to each well using a pin tool, followed by 24h-incubation at 37 degree Celsius/5% C02. Then one volume of CellTiter-Glo assay reagent (Promega) was added to each well for cell viability measured by a ViewLux plate reader (PerkinElmer). The % activity was determined by normalizing to the average readings from wells containing no cells relative to DMSO-treated cells (0% Activity). The concentration-effect curves were then classified based on curve quality (r2), response magnitude and degree of measured activity.
# Potency means the concentration at half of the fitted maximal effect; tags describe the fitted curve by direction and shape.
SMILES,Potency,"activity change, negative = cytotoxicity"
C1CCC(C(CC2CCCCN2)C2CCCCC2)CC1 (stereo not given),active: 18.1 µM,
Clc1ccc(Nc2nnc(Cc3ccncc3)c3ccccc23)cc1,"inconclusive: 25.6 µM [cytotoxic, partial curve, poor fit]",
CC[C@@]1(O)C(=O)OCc2c1cc1n(c2=O)Cc2cc3c(CN(C)C)c(O)ccc3nc2-1,"inconclusive: 40.5 µM [cytotoxic, partial curve, poor fit]",
O=C1CSC2(CCN(CCCN3c4ccccc4Sc4ccc(Cl)cc43)CC2)N1,active: 32.2 µM,
Nc1ccn([C@@H]2O[C@H](CO)[C@H](O)C2(F)F)c(=O)n1,"inconclusive: 0.0809 µM [cytotoxic, full curve, poor fit]",
CN(C)C(=S)SC(=S)N(C)C,"inconclusive: 0.455 µM [cytotoxic, full curve, poor fit]",
C=C1C(=CC=C2CCC[C@@]3(C)[C@@H]2CC[C@H]3[C@H](C)CCCC(C)C)C[C@@H](O)C[C@@H]1O,"inconclusive: 36.1 µM [cytotoxic, partial curve, poor fit]",
Oc1ccc(C(O)CNCCCCCCNCC(O)c2ccc(O)c(O)c2)cc1O (stereo not given),"inconclusive: 40.5 µM [cytotoxic, single point]",
CCN(CC)C(=O)/C(C#N)=C/c1cc(O)c(O)c([N+](=O)[O-])c1,,inactive: 9.45%
CC(C)(C(=O)c1cccnc1)c1cccnc1,,inactive: -16.5% [at 25.7 µM]
CC(=O)Oc1c(C)cc(OCC(O)CNC(C)C)c(C)c1C (stereo not given),,inactive: -25.8%
OCCN1CCN(CCCN2c3ccccc3Sc3ccc(Cl)cc32)CC1,"inconclusive: 15.5 µM [cytotoxic, single point]",
O=C(c1ccc(OCCN2CCCCC2)cc1)c1c(-c2ccc(O)cc2)sc2cc(O)ccc12,"inconclusive: 36.1 µM [cytotoxic, single point]",
Cc1cc(-c2ccc(N=Nc3c(S(=O)(=O)O)cc4cc(S(=O)(=O)O)cc(N)c4c3O)c(C)c2)ccc1N=Nc1c(S(=O)(=O)O)cc2cc(S(=O)(=O)O)cc(N)c2c1O,active: 12.8 µM,
CCCCCCCCCCCCCC[n+]1ccc(C)cc1,"inconclusive: 1.28 µM [cytotoxic, full curve]",
C[C@]12CCC(=O)C=C1CC[C@@H]1[C@@H]2[C@@H](O)C[C@@]2(C)[C@H]1CC[C@]2(O)C(=O)COP(=O)(O)O,,inactive: 7.27%
CC(=O)[C@]1(O)Cc2c(O)c3c(c(O)c2[C@@H](O[C@H]2C[C@H](N)[C@H](O)[C@H](C)O2)C1)C(=O)c1ccccc1C3=O,active: 32.2 µM,
CN1CCN(CCCN2c3ccccc3Sc3ccc(S(=O)(=O)N(C)C)cc32)CC1,"inconclusive: 17.4 µM [cytotoxic, single point]",
CCCCCCCCCCCCCCCC[n+]1ccccc1,active: 36.1 µM,
O=S(=O)(O)c1ccc2c(N=Nc3ccc(S(=O)(=O)O)c4ccccc34)c(O)c(S(=O)(=O)O)cc2c1,"inconclusive: 5.73 µM [cytotoxic, full curve]",

SMILES,Potency,"activity change, negative = cytotoxicity"
CSc1ccc2c(c1)N(CCC1CCCCN1C)c1ccccc1S2 (stereo not given),active: 32.2 µM,
CC[C@@]1(O)C(=O)OCc2c1cc1n(c2=O)Cc2cc3c([N+](=O)[O-])cccc3nc2-1,"inconclusive: 4.05 µM [cytotoxic, full curve]",
C=CCNC1=C2C[C@@H](C)C[C@H](OC)[C@H](O)[C@@H](C)/C=C(\C)[C@H](OC(N)=O)[C@@H](OC)/C=C\C=C(/C)C(=O)NC(=CC1=O)C2=O,active: 16.1 µM,
Clc1ccc2c(c1)C(N1CCNCC1)=Nc1ccccc1O2,"inconclusive: 9.07 µM [cytotoxic, full curve]",
C=CCSSSCC=C,"inconclusive: 0.0051 µM [rising, full curve, poor fit]",
CCNC(=O)[C@@H]1CCCN1C(=O)[C@H](CCCN=C(N)N)NC(=O)[C@H](CC(C)C)NC(=O)[C@@H](Cc1c[nH]c2ccccc12)NC(=O)[C@H](Cc1ccc(O)cc1)NC(=O)[C@H](CO)NC(=O)[C@H](Cc1c[nH]c2ccccc12)NC(=O)[C@H](Cc1cnc[nH]1)NC(=O)[C@@H]1CCC(=O)N1,active: 6.42 µM,
C#Cc1cccc(Nc2ncnc3cc(OCCOC)c(OCCOC)cc23)c1,"inconclusive: 8.09 µM [cytotoxic, full curve]",
NC(N)=NN=C(/C=C/c1ccc([N+](=O)[O-])o1)/C=C/c1ccc([N+](=O)[O-])o1,"inconclusive: 9.07 µM [cytotoxic, full curve]",
CCCCC/C=C\C/C=C\CCCCCCCC(=O)O,"inconclusive: 12.8 µM [cytotoxic, partial curve, poor fit]",
CCCCCCCCCCCCCCCC[N+](C)(C)CCN(Cc1ccc(OC)cc1)c1ncccn1,"inconclusive: 15.5 µM [cytotoxic, single point]",
COc1cc(NS(C)(=O)=O)ccc1Nc1c2ccccc2nc2ccccc12,active: 32.2 µM,
COc1cc(C(=O)OCCCN2CCCN(CCCOC(=O)c3cc(OC)c(OC)c(OC)c3)CC2)cc(OC)c1OC,"inconclusive: 20.3 µM [cytotoxic, partial curve]",
COc1ccc(CN2CCN(C(c3ccc(F)cc3)c3ccc(F)cc3)CC2)c(OC)c1OC,active: 28.7 µM,
COc1cc2c(cc1OC)-c1cc(=Nc3c(C)cc(C)cc3C)n(C)c(=O)n1CC2,active: 32.2 µM,
CC(C)(C)CC(C)(C)c1ccc(OCCOCC[N+](C)(C)Cc2ccccc2)cc1,active: 32.2 µM,
CCCCCCCCCCCCCC[N+](C)(C)C,"inconclusive: 28.7 µM [cytotoxic, partial curve]",
CCN(CC)CCCN(c1ccccc1)C1Cc2ccccc2C1,active: 14.4 µM,
CCCCC(CC)CN=C(N)NC(N)=NCCCCCCN=C(N)NC(N)=NCC(CC)CCCC (stereo not given),active: 20.3 µM,
CC(C(=O)O)c1ccc(CC2CCCC2=O)cc1 (stereo not given),"inconclusive: 0.0051 µM [cytotoxic, full curve, poor fit]",
COc1ccc(CCN2CCC(Nc3nc4ccccc4n3Cc3ccc(F)cc3)CC2)cc1,active: 16.1 µM,

# — PubChem BioAssay (NCATS)
